Experimental data: US10385089B2, “Thionucleoside derivative or salt thereof, and pharmaceutical composition” (FUJIFILM Corporation, priority 2014, dated 2019)

Tested on: gemcitabine-resistant strain of pancreatic cancer cell line Capan-1 (ATCC Number: HTB-79)
Experiment: Gemcitabine-resistant cell growth inhibition test (CellTiter Glo, total cellular ATP)
Conditions: Homo sapiens, CAPAN-1, 72 h, read-out: Growth inhibitory activity IC50 (μmol/L)

IC50 [µmol/L]	Compound
> 15	C[C@H](NP(=O)(OC[C@H]1O[C@@H](n2ccc(N)nc2=O)C(F)(F)[C@@H]1O)Oc1ccccc1)C(=O)OCc1ccccc1 (mixture of isomers) [Comparative Example 1, (2S)-benzyl 2-(((RS)-(((2R,3R,5R)-5-(4-amino-2-oxopyrimidin-1(2H)-yl)-4,4-difluoro-3-hydroxytetrahydrofuran-2-yl)methoxy)(phenoxy)phosphoryl)amino)propanoate, reference compound]
5 to 15	CC(C)OC(=O)OCOP(=O)(N[C@@H](C)C(=O)OCc1ccccc1)OC[C@H]1S[C@@H](n2ccc(N)nc2=O)[C@@H](F)[C@@H]1O (mixture of isomers) [Example 7-1, (2S)-benzyl 2-(((RS)-(((2R,3S,4S,5R)-5-(4-amino-2-oxopyrimidin-1(2H)-yl)-4-fluoro-3-hydroxytetrahydrothiophen-2-yl)methoxy)(((isopropoxycarbonyl)oxy)methoxy)phosphoryl)amino)propanoate]
5 to 15	CC(C)OC(=O)[C@H](C)NP(=O)(OCOC(=O)C(C)(C)C)OC[C@H]1S[C@@H](n2ccc(N)nc2=O)[C@@H](F)[C@@H]1O (mixture of isomers) [Example 7-3-1, (((RS)-(((2R,3S,4S,5R)-5-(4-amino-2-oxopyrimidin-1(2H)-yl)-4-fluoro-3-hydroxytetrahydrothiophen-2-yl)methoxy)(((S)-1-isopropoxy-1-oxopropan-2-yl)amino)phosphoryl)oxy)methyl pivalate]
5 to 15	C[C@H](NP(=O)(OCOC(=O)C(C)(C)C)OC[C@H]1S[C@@H](n2ccc(N)nc2=O)[C@@H](F)[C@@H]1O)C(=O)OCc1ccccc1 (mixture of isomers) [Example 7-3-2, (((RS)-(((2R,3S,4S,5R)-5-(4-amino-2-oxopyrimidin-1(2H)-yl)-4-fluoro-3-hydroxytetrahydrothiophen-2-yl)methoxy)(((S)-1-(benzyloxy)-1-oxopropan-2-yl)amino)phosphoryl)oxy)methyl pivalate]
5 to 15	C[C@H](NP(=O)(OCCSC(=O)C(C)(C)C)OC[C@H]1S[C@@H](n2ccc(N)nc2=O)[C@@H](F)[C@@H]1O)C(=O)OCc1ccccc1 (mixture of isomers) [Example 7-3-3, (2S)-benzyl 2-(((RS)-(((2R,3S,4S,5R)-5-(4-amino-2-oxopyrimidin-1(2H)-yl)-4-fluoro-3-hydroxytetrahydro-thiophen-2-yl)methoxy)(2-(pivaloylthio)ethoxy)phosphoryl)amino)propanoate]
2 to 5	CC(C)(C)C(=O)OCOP(=O)(OCCSC(=O)C(C)(C)C)OC[C@H]1S[C@@H](n2ccc(N)nc2=O)[C@@H](F)[C@@H]1O (mixture of isomers) [Example 10-1, (((RS)-(((2R,3S,4S,5R)-5-(4-amino-2-oxopyrimidin-1(2H)-yl)-4-fluoro-3-hydroxytetrahydrothiophen-2-yl)methoxy)(2-(pivaloylthio)ethoxy)phosphoryl)oxy)methyl pivalate]
2 to 5	CC(C)OC(=O)OCOP(=O)(OCCSC(=O)C(C)(C)C)OC[C@H]1S[C@@H](n2ccc(N)nc2=O)[C@@H](F)[C@@H]1O (mixture of isomers) [Example 10-2, S-(2-(((RS)-(((2R,3S,4S,5R)-5-(4-amino-2-oxopyrimidin-1(2H)-yl)-4-fluoro-3-hydroxytetrahydrothiophen-2-yl)methoxy)(((isopropoxycarbonyl)oxy)methoxy)phosphoryl)oxy)ethyl) 2,2-dimethylpropanethioate]
2 to 5	C[C@H](NP1(=O)OC[C@H]2S[C@@H](n3ccc(N)nc3=O)[C@@H](F)[C@@H]2O1)C(=O)OCc1ccccc1 (mixture of isomers) [Example 29-1, (2S)-benzyl 2-(((2RS,4aR,6R,7S,7aS)-6-(4-amino-2-oxopyrimidin-1(2H)-yl)-7-fluoro-2-oxidotetrahydro-4H-thieno[3,2-d][1,3,2]dioxaphosphinin-2-yl)amino)propanoate]
2 to 5	CC(C)OC(=O)[C@H](C)NP1(=O)OC[C@H]2S[C@@H](n3ccc(N)nc3=O)[C@@H](F)[C@@H]2O1 (mixture of isomers) [Example 29-2, (2S)-isopropyl 2-(((2RS,4aR,6R,7S,7aS)-6-(4-amino-2-oxopyrimidin-1(2H)-yl)-7-fluoro-2-oxidotetrahydro-4H-thieno[3,2-d][1,3,2]dioxaphosphinin-2-yl)amino)propanoate]
> 15	CC(C)(C)C(=O)OCOP(=O)(OCOC(=O)C(C)(C)C)OC[C@H]1O[C@@H](n2ccc(N)nc2=O)C(F)(F)C1O (stereo in doubt) [Comparative Example 4, ((2R,3S,5R)-5-(4-amino-2-oxopyrimidin-1(2H)-yl)-4,4-difluoro-3-hydroxytetrahydrofuran-2-yl)methyl bis(pivaloyloxymethyl) phosphate, reference compound]
< 2	CC(C)(C)C(=O)SCCOP(=O)(OCCSC(=O)C(C)(C)C)OC[C@H]1S[C@@H](n2ccc(N)nc2=O)[C@@H](F)[C@@H]1O [Example 8, ((2R,3S,4S,5R)-5-(4-amino-2-oxopyrimidin-1(2H)-yl)-4-fluoro-3-hydroxytetrahydrothiophen-2-yl)methyl bis(S-pivaloyl-2-mercaptoethan-1-yl) phosphate]
2 to 5	CC(C)C(=O)SCCOP(=O)(OCCSC(=O)C(C)C)OC[C@H]1S[C@@H](n2ccc(N)nc2=O)[C@@H](F)[C@@H]1O [Example 9-1, ((2R,3S,4S,5R)-5-(4-amino-2-oxopyrimidin-1(2H)-yl)-4-fluoro-3-hydroxytetrahydrothiophen-2-yl)methyl bis(S-isobutyryl-2-mercaptoethan-1-yl) phosphate]
5 to 15	CC(C)OC(=O)OCOP(=O)(OCOC(=O)OC(C)C)OC[C@H]1S[C@@H](n2ccc(N)nc2=O)[C@@H](F)[C@@H]1O [Example 11-1-2, ((2R,3S,4S,5R)-5-(4-amino-2-oxopyrimidin-1(2H)-yl)-4-fluoro-3-hydroxytetrahydrothiophen-2-yl)methyl bis(isopropyloxycarbonyloxymethyl) phosphate]
5 to 15	Nc1ccn([C@@H]2S[C@H](COP(=O)(OCCSSCCO)OCCSSCCO)[C@@H](O)[C@@H]2F)c(=O)n1 [Example 12-1, ((2R,3S,4S,5R)-5-(4-amino-2-oxopyrimidin-1(2H)-yl)-4-fluoro-3-hydroxytetrahydrothiophen-2-yl)methyl bis(2-((2-hydroxyethyl)disulfanyl)ethyl) phosphate]
2 to 5	CC(C)(C)C(=O)OCCSSCCOP(=O)(OCCSSCCOC(=O)C(C)(C)C)OC[C@H]1S[C@@H](n2ccc(N)nc2=O)[C@@H](F)[C@@H]1O [Example 13-1, ((2R,3S,4S,5R)-5-(4-amino-2-oxopyrimidin-1(2H)-yl)-4-fluoro-3-hydroxytetrahydrothiophen-2-yl)methyl bis(2-((2-pivaloyloxyethyl)disulfanyl)ethyl) phosphate]
